Data as given in the supplement of paper PMC3334620.
Whole data set: some 33,000 sequences, median “E-score (-0.5 to 0.5)” near -0.053, cut for the highest 2% near 0.37. Some of the results follow.

Molecular target: Hap1 (UniProt P0CE41)
Experiment: PBM E-score (8-mer binding enrichment) (E-score (-0.5 to 0.5)); higher = stronger / more preferred TF binding; most listed sequences are background and not binding sites
Conditions: protein concentration: 200 nM; construct: GST-DNA-binding domain
Protocol: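 Universal 'all 10-mer' protein binding microarrays (Agilent AMADID 015681) probed with GST-tagged S. cerevisiae TFs (full-length or DBD) made by in vitro transcription/translation (PURExpress), about 100-200 nM. Bound TF was detected with fluorescent anti-GST. Each ungapped 8-mer (which stands for itself and its reverse complement) is scored by the PBM enrichment score (E-score), a modified Wilcoxon-Mann-Whitney statistic from -0.5 to +0.5, computed with the Universal PBM Analysis Suite. Scale: above 0.35 generally sequence-specific binding.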

Sequence of UniProt P0CE41 (P0CE41 whole entry): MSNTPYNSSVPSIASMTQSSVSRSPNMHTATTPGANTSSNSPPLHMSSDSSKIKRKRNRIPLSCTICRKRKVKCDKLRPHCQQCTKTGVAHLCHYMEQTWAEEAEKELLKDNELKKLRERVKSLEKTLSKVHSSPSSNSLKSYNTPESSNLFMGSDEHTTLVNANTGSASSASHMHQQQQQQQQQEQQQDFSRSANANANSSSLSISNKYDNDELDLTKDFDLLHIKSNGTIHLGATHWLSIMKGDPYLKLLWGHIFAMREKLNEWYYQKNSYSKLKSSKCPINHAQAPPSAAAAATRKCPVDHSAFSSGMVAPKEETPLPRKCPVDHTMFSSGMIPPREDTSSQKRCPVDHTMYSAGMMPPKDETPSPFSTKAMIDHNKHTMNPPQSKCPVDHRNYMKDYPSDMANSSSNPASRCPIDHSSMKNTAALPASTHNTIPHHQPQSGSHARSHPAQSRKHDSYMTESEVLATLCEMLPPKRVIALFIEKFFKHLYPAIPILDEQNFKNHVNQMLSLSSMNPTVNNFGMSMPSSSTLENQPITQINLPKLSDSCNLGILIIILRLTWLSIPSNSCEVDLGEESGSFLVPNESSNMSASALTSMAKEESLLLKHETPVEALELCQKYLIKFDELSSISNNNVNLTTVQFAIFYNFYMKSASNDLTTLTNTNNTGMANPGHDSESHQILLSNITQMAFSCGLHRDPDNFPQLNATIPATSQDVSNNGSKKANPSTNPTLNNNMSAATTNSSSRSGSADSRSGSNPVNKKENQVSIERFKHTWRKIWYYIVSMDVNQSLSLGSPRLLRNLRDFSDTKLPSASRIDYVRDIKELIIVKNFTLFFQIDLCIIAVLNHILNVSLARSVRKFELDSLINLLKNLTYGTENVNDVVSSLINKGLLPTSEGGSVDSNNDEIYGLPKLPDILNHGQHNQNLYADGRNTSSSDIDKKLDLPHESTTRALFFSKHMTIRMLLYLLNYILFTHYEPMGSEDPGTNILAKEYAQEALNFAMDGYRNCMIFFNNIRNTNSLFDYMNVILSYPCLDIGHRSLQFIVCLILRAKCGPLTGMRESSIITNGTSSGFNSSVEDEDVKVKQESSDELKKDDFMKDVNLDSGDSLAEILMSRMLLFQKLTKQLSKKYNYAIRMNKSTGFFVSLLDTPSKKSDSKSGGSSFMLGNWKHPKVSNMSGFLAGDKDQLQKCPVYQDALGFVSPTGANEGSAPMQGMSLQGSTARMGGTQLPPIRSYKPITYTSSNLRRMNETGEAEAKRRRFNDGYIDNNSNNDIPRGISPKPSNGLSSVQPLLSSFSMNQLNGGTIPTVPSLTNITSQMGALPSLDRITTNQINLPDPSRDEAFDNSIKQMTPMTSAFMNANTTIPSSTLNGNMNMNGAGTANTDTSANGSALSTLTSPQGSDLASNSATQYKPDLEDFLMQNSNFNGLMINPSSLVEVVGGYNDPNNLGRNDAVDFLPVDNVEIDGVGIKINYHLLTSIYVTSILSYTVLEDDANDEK

| Sequence | PBM E-score |
| --- | --- |
| CGGCAAAA | 0.127 |
| CGGTCGTA | 0.383 |
| GCAAAAGC | 0.00761 |
| GGGGTCCA | -0.0995 |
| ACGAGGCA | -0.246 |
| CAAGGTAG | -0.102 |
| ATCTAAAT | 0.149 |
| CTTCGGTC | 0.284 |
| CTTTCGCA | -0.158 |
| AACTAAAC | 0.00956 |
| CGCCGGAG | 0.399 |
| CCATAGTA | -0.0347 |
| AGTGAACG | -0.17 |
| CTGCTACC | -0.239 |
| ATCGTGAC | -0.0933 |
| CAATTACC | 0.117 |
| GCTTAGTA | -0.191 |
| ATTCTCGA | -0.129 |
| ATTTTATC | 0.189 |
| AGAGGCCC | -0.182 |
| AGCGATTC | 0.061 |
| GCCAACCC | -0.0872 |
| GAGGTTAA | 0.0192 |
| ACTCCTTG | 0.034 |
| AAATACGA | -0.0883 |

| Sequence | PBM E-score |
| --- | --- |
| ACGCTACC | -0.0808 |
| CTTACGCC | 0.15 |
| ATCGGGTA | 0.283 |
| TACATCGA | -0.0967 |
| CCAGTTCG | 0.0694 |
| AGGAATCC | -0.0692 |
| GTACCAAC | 0.0726 |
| ATCGAAAC | 0.067 |
| GCCTAAAA | -0.205 |
| CCTGCGCA | -0.126 |
| CAGGCCCA | -0.241 |
| ACGCTGAC | -0.115 |
| CCGTCCTA | -0.104 |
| ACAGCTAT | -0.198 |
| CAGTGACG | 0.00406 |
| GCTGTTAA | 0.109 |
| ACGCGTTG | 0.0771 |
| CGTGTGAG | -0.172 |
| CATCGACC | -0.00088 |
| GAATGATA | 0.116 |
| AAAACTCA | 0.0194 |
| ACGGCACT | 0.195 |
| AAGCAATT | -0.0596 |
| AGATGTGA | -0.0854 |
| TATGAAGA | -0.111 |

| Sequence | PBM E-score |
| --- | --- |
| GCATTTTA | 0.17 |
| AATCTAGC | -0.122 |
| GCATCAGC | -0.0939 |
| TCCCAAAA | -0.0766 |
| TAGCATCA | -0.0893 |
| CTCCGTTC | 0.301 |
| CACAGACC | 0.0985 |
| CAAGCAGG | -0.0653 |
| AGCAACTC | -0.0962 |
| CGTCTCGC | 0.0261 |
| ACGGCCAA | 0.166 |
| AATCTGAA | -0.0832 |
| ATCTCTAA | 0.0904 |
| CCTTACGA | -0.162 |
| TCATAACA | -0.107 |
| ATTTATCC | 0.172 |
| TAAAATTA | -0.0441 |
| AGAACCCG | 0.128 |
| CACATAGA | -0.168 |
| ACAGATCA | -0.0146 |
| GGCGTGGA | -0.0379 |
| GAAATTAA | 0.0698 |
| CACTCTCA | -0.305 |
| AGACAGGC | -0.0669 |
| AAGGTCCT | -0.155 |

| Sequence | PBM E-score |
| --- | --- |
| ATACACGA | -0.184 |
| CATACATA | -0.0798 |
| AATCGAGT | -0.14 |
| AATAACGA | 0.0252 |
| CGATACCC | 0.205 |
| AGTGTTCG | 0.0985 |
| CCACCACC | 0.0435 |
| AATTGAAT | -0.0703 |
| CTACCACC | -0.0602 |
| GTGACCCA | -0.178 |
| CGTGCACG | 0.122 |
| ATCCGCGG | 0.32 |
| CGACCACC | 0.169 |
| GATGTTTA | -0.122 |
| ATAATAGA | -0.0573 |
| ACTGGTCG | -0.0744 |
| GACAGCAA | -0.221 |
| CGGTAAAG | 0.275 |
| CTGGACCC | -0.106 |
| ACGATCTA | -0.34 |
| ACTCAAGC | -0.0986 |
| GATCGCAC | -0.0615 |
| GAAGAGTC | -0.168 |
| CCCTGATA | -0.156 |
| ATGTTAAA | -0.0832 |

| Sequence | PBM E-score |
| --- | --- |
| CATTGCCC | -0.111 |
| ACGGATGG | 0.165 |
| ACGAGGGC | 0.0421 |
| GCCTCATA | -0.184 |
| AGGGCGAG | -0.175 |
| AGTAATCC | 0.0848 |
| AAAGGCTC | -0.0504 |
| ACCTCTTA | 0.175 |
| TCTCACAA | -0.0963 |
| CTGATTCA | -0.232 |
| CAGTTGGA | -0.199 |
| ATCAAAAC | 0.0206 |
| CGTCGATA | 0.137 |
| GACTATCA | -0.147 |
| ATCAGACC | 0.0524 |
| GATGTAGC | 0.0109 |
| GGAAGTCC | 0.122 |
| ATCGCAAC | -0.135 |
| AATGAGCT | -0.0653 |
| AATATGCA | 0.0149 |
| TCGTCTCA | -0.14 |
| GCATTCGA | 0.0247 |
| CCCCCGCG | 0.159 |
| CAGCAAAA | -0.247 |
| CTCTTACC | 0.153 |

| Sequence | PBM E-score |
| --- | --- |
| CACCAACG | -0.0214 |
| AAAGCTAC | -0.13 |
| CTCCTCTA | -0.246 |
| GACGGAAA | 0.314 |
| CTTGCCCA | -0.18 |
| AGTCAGTG | -0.235 |
| AGGAAACC | 0.0632 |
| ACACGGGG | 0.13 |
| AGCAGCCT | -0.25 |
| AAATTTCG | 0.161 |
| CCGTAAAA | 0.262 |
| GGGTAAAA | 0.0311 |
| ATTGGCCC | -0.0569 |
| CCGCGGAC | 0.383 |
| ATACTACA | 0.003 |
| AACTTAAA | -0.186 |
| CACCAGCG | -0.13 |
| AATGAGAG | -0.144 |
| AACACTGT | -0.205 |
| AACGTTTC | -0.19 |
| CAGTAAAG | -0.185 |
| GGACGACA | 0.0773 |
| GGTAGTGA | -0.0893 |
| CGCAGAAA | -0.0644 |
| AAGGCCTG | -0.191 |

| Sequence | PBM E-score |
| --- | --- |
| AGCGAATG | -0.157 |
| ACCATACG | -0.149 |
| AGCGGGGC | 0.108 |
| GGTTTACA | -0.0158 |
| AAACATGC | -0.123 |
| AGTAACGC | -0.0724 |
| ATTAGCTG | -0.12 |
| ATCCAAAA | -0.0459 |
| GCTTCAGA | -0.107 |
| CCATAAGA | -0.0726 |
| GAACTAGC | 0.0324 |
| CTCATGAG | -0.228 |
| CAGAAACG | -0.074 |
| GCGTCACC | -0.0889 |
| CTGAAATA | -0.104 |
| AACCTTCC | 0.0161 |
| ATCGAAAA | -0.0311 |
| AAAGTTTA | 0.0987 |
| TAATTACA | -0.0885 |
| CGGGCGCA | 0.221 |
| GATGAAAC | 0.0604 |
| GAAGTACC | 0.158 |
